About 200 (0.44%) of roughly 45,000 compounds were called active. About 7% were inconclusive and are not listed. Calls follow the shape of the dose curve; as a rule, active = well fitted activation curve with a large enough effect; inconclusive = small, poorly fitted or top-dose-only effect; inactive = no such curve, though single readings can be large or run the other way. The list shows a part of the results.

This assay in a line: qHTS of TDP-43 Inhibitors: NCGC Sytravon Library Screen. Also: 0% is about no effect; nearly all actives have a fitted effect of over 55% in size. To be noted: yeast TDP-43 toxicity rescue, BacTiter-Glo growth, 24 h; series mostly up to 46.1 µM; growth rescue (activation): at the top concentration. In a few lines:
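TDP-43-expressing yeast, pregrown in raffinose, seeded at OD600 0.02 in galactose medium with compound for 24 hr at 30 deg C. Growth read by BacTiter-Glo luminescence, so rescue of toxicity appears as activation.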
On the technique in general: In qHTS, concentration-response curves come from the screen itself.
As for `Cc1cc2oc(C(=O)NCCc3ccc(S(N)(=O)=O)cc3)c(C)c2cc1C`, the “growth rescue (activation)” value was inactive: -4.38%.

Consider `CCCn1c(N)c(C(=O)CSc2nnc(C)n2Cc2ccccc2)c(=O)n(C)c1=O`, for which the “growth rescue (activation)” value is inactive: 10%.

Take `CCCNC(=O)C1CC(=O)N(c2ccc(OCC)cc2)C1` (stereo unspecified): the “growth rescue (activation)” value is inactive: -6.35%.

As for `CNc1cnc(-c2ccc(O)c(OC)c2)cn1`, the “growth rescue (activation)” value is inactive: 7.24%.

As to `Cc1ccccc1NC(=O)NCC1CCN(c2ccc(S(=O)(=O)N3CCOCC3)cc2)CC1`, the “growth rescue (activation)” value was inactive: -4.61%.

As for `CCC(C)Cn1c(C(C)C)nc2ccccc21` (stereo unspecified), the “growth rescue (activation)” value was inactive: 11.5%.

Consider `COc1ccc(-n2cc(-c3ccccc3)[n+]3c2CCCCC3)cc1`, for which the “growth rescue (activation)” value is inactive: 0.505%.

Regarding `COc1cc(/C=C/C(=O)O)cc(S(=O)(=O)NNC(=O)c2ccc3c(c2)OCO3)c1OC`, the “growth rescue (activation)” value is inactive: 13.5%.

Turning to `COc1ccc(CN(C)C(C)C(=O)Nc2cccc3ccccc23)cc1` (stereo unspecified), the “growth rescue (activation)” value was inactive: 8.13%.

For `O=C(CCCSc1nc2ccccc2[nH]1)NCc1ccccc1Cl`, the “growth rescue (activation)” value was inactive: 19.8%.

Turning to `O=S(=O)(O)c1cc(O)c2c(O)c(N=Nc3cc(Cl)ccc3O)c(S(=O)(=O)O)cc2c1`, the “growth rescue (activation)” value was inactive: -59.1%.

On to `Cc1cccc([C@@H]2C[C@H]3CN(Cc4cccc(Cl)c4)C(=O)[C@]34CCCN24)n1`, for which the “growth rescue (activation)” value is inactive: 1.64%.

Regarding `Nc1nc(CSc2nnnn2-c2ccc(Cl)cc2)nc(N2CCOCC2)n1`, the “growth rescue (activation)” value was inactive: -7.6%.

On to `O=C(O)c1cccc(NC(=O)c2ccc(N3C(=O)c4ccc(C(=O)Nc5cccc(C(=O)O)c5)cc4C3=O)cc2)c1`, for which the “growth rescue (activation)” value was inactive: 11.4%.

For the compound `CS(=O)(=O)c1ccc(C(=O)OCC(=O)NC(=O)C2COc3ccccc3O2)cc1[N+](=O)[O-]` (stereo unspecified), the “growth rescue (activation)” value is inactive: 21.7%.

As for `O=C(NCCc1c[nH]c2ccccc12)c1ccc2c(c1)OCO2`, the “growth rescue (activation)” value is inactive: 22.3%.

Turning to `CCN1C(=O)c2ccccc2S(=O)c2ccc(C(=O)N3CCOCC3)cc21` (stereo unspecified), the “growth rescue (activation)” value is inactive: 13%.

Take `CCOc1cccc(N(C(=O)C2COc3ccccc3O2)C(C(=O)NC2CCCCC2)c2ccc(O)cc2)c1` (stereo unspecified): the “growth rescue (activation)” value is inactive: -22.2%.

In the case of `Clc1nnc(NN=C2CCCC2)c2ccccc12`, the “growth rescue (activation)” value is inactive: 8.95%.

On to `Cc1cc2ccccn2c1C(=O)Nc1ccc(Cl)cc1`, for which the “growth rescue (activation)” value is inactive: 18%.

Regarding `CCOc1cc(/C=C/C(=O)O)ccc1OCCO`, the “growth rescue (activation)” value is inactive: -7.21%.

Take `Cc1ccc(-c2nc3ccccc3c(=O)n2NC(=O)c2cccs2)cc1`: the “growth rescue (activation)” value was inactive: -8.31%.

As to `CCc1ccc(NC(=O)C2CCN(S(=O)(=O)c3cccs3)CC2)cc1`, the “growth rescue (activation)” value was inactive: -2.72%.

Take `CCOC(=O)Cc1nc(-c2ccccc2)n[nH]1`: the “growth rescue (activation)” value was inactive: -0.7%.

In the case of `CCOC(=O)c1nc(Nc2ccc(OC)cc2)c2ccccc2n1`, the “growth rescue (activation)” value was inactive: 8.27%.

Turning to `COc1ccc(NC2=C(NCCO)C(=O)c3ccccc3C2=O)cc1`, the “growth rescue (activation)” value was inactive: -11.6%.

Regarding `Cc1cc(C)n(-c2ccc(F)cc2CN2CCN(C3CCCC3)C(CCO)C2)n1` (stereo unspecified), the “growth rescue (activation)” value was inactive: -1.01%.

Take `Cc1cccc2nc(CSc3ccccc3C(=O)O)cn12`: the “growth rescue (activation)” value was inactive: 4.23%.

Consider `COc1ccc(S(=O)(=O)N(C)CC(=O)NCc2ccco2)cc1OC`, for which the “growth rescue (activation)” value was inactive: -2.65%.

Turning to `COC(=O)c1cc(C(=O)OC)cc(N2C(=O)CC(Sc3nc(C)cc(C)n3)C2=O)c1` (stereo unspecified), the “growth rescue (activation)” value is inactive: -12.1%.

Turning to `Cc1ccc(NC(=O)CCC(=O)NNC(=O)c2ccccc2[N+](=O)[O-])c(C)c1`, the “growth rescue (activation)” value was inactive: 0.93%.

With `NS(=O)(=O)c1ccc(CCNC(=O)CN2CCN(c3cccc(Cl)c3)CC2)cc1`, the “growth rescue (activation)” value is inactive: 17.5%.

Regarding `COc1ccc(C2c3c(-c4ccccc4O)n[nH]c3C(=O)N2Cc2ccco2)cc1OC` (stereo unspecified), the “growth rescue (activation)” value is inactive: 31.3%.

`COc1ccc(OCc2cc(C(=O)N(C)Cc3cnccn3)no2)c(Cl)c1`: the “growth rescue (activation)” value was inactive: 15.2%.

For `COc1ccccc1S(=O)(=O)N1CCn2cccc2C1C` (stereo unspecified), the “growth rescue (activation)” value is inactive: 24%.

As to `COc1ccc(C(=O)N(CCc2ccccc2)Cc2ccccc2)c(OC)n1`, the “growth rescue (activation)” value is inactive: 23.1%.

Consider `COc1cccc2cc(C(C)N(CCCN3CCOCC3)C(=S)Nc3cccc(C)c3C)oc12` (stereo unspecified), for which the “growth rescue (activation)” value is inactive: -8.43%.

With `CN(CCO)c1cc(N2CCC3(CC2)OCCO3)c2nonc2c1[N+](=O)[O-]`, the “growth rescue (activation)” value was inactive: 1.94%.

Take `CC(C)c1ccc(C(=O)N2CCCCC2c2cc(C(=O)Nc3ccncc3)no2)cc1` (stereo unspecified): the “growth rescue (activation)” value was inactive: 17.4%.

For the compound `Cc1ccc(-c2cc(-c3n[nH]c(=S)n3C)c3ccccc3n2)cc1`, the “growth rescue (activation)” value was inactive: 17.2%.

With `Cc1ccc(-n2c(=O)c3sccc3n(CC(=O)NCC3CCCO3)c2=O)cc1F` (stereo unspecified), the “growth rescue (activation)” value is inactive: 1.9%.

For the compound `N#Cc1ccc(S(=O)(=O)N2CCCCC2c2cc(C(=O)NCc3ccccc3)no2)cc1` (stereo unspecified), the “growth rescue (activation)” value is inactive: 14.5%.

For `O=C(COC(=O)c1ccccc1Nc1ccc(SC(F)F)cc1)NC1CC1`, the “growth rescue (activation)” value is inactive: 24%.

With `CC(=O)c1ccc(N2CCN(C(=S)Nc3ccccc3F)CC2)cc1`, the “growth rescue (activation)” value was inactive: 17.8%.

Turning to `O=C1C2CCCN2C(=S)N1c1ccc(Cl)cc1` (stereo unspecified), the “growth rescue (activation)” value was inactive: -10.8%.

As to `COC(=O)c1cccc(NC(=O)Cc2nc(-c3ccccc3)sc2-c2ccc(C)cc2)c1`, the “growth rescue (activation)” value was inactive: -11.5%.

As for `Cc1ccc(S(=O)(=O)N2CCN(C(=O)N3CCCC3)CC2)cc1`, the “growth rescue (activation)” value was inactive: -14.8%.

For the compound `COc1ccc(S(=O)(=O)N2CCC(NC(=O)N3CCOCC3)CC2)cc1`, the “growth rescue (activation)” value is inactive: -12.7%.

With `Cc1cc(C)nc(NS(=O)(=O)c2ccc(N/C=C/C(=O)c3ccc(Cl)c(Cl)c3)cc2)n1`, the “growth rescue (activation)” value was inactive: 10.1%.

Take `CC(=O)C(C)Sc1nnc(-c2ccccc2F)n1C1CC1` (stereo unspecified): the “growth rescue (activation)” value is inactive: 14.3%.

`COc1ccc(NS(=O)(=O)c2ccc(O)c(C(=O)OCC(=O)Nc3ccc4c(c3)OCCO4)c2)cc1`: the “growth rescue (activation)” value is inactive: -23.9%.

`CC1Oc2ccccc2N(CC(=O)NC2CC2)C1=O` (stereo unspecified): the “growth rescue (activation)” value is inactive: -7.5%.

Consider `CCOc1ncccc1C(=O)OCC(=O)Nc1cccc(S(N)(=O)=O)c1`, for which the “growth rescue (activation)” value was inactive: 0.852%.

In the case of `O=C(OCCOc1ccccc1F)c1cc(S(=O)(=O)N2CCOCC2)ccc1F`, the “growth rescue (activation)” value was inactive: -1.29%.

Take `COc1cc(/C=C2/C(=N)N3N=C(C)SC3=NC2=O)ccc1OS(=O)(=O)c1ccc(C)cc1`: the “growth rescue (activation)” value was inactive: -4.8%.

`O=C(NC(c1ccc(Cl)cc1)c1cnccn1)C1CCN(Cc2ccc(Cl)cc2)CC1` (stereo unspecified): the “growth rescue (activation)” value was inactive: 12.4%.

In the case of `O=C(CCCN1CCc2[nH]c3ccc(F)cc3c2C1)c1ccc(F)cc1`, the “growth rescue (activation)” value is inactive: 7.2%.

Regarding `Nc1cccc(C2=Nc3cccc4cccc(c34)N2)c1`, the “growth rescue (activation)” value was inactive: -6.61%.

On to `CCOC(=O)CSc1ncnc2c1cnn2-c1ccc(Cl)cc1`, for which the “growth rescue (activation)” value is inactive: -17.7%.

For `CCN(CC)S(=O)(=O)c1cc(NC(=O)CSc2nnc(-c3cccs3)o2)ccc1C`, the “growth rescue (activation)” value was inactive: -12.4%.

As to `CCn1c(SCC(=O)N/N=C/c2cc(OC)c(OC)c(OC)c2)nc2ccccc21`, the “growth rescue (activation)” value is inactive: 15.8%.

With `N#Cc1ccccc1COC(=O)c1cc(=O)c2ccccc2o1`, the “growth rescue (activation)” value is inactive: -1.86%.

Regarding `COC(=O)C(Cc1ccccc1)NC(=O)C12CC3CC(CC(C3)C1)C2` (stereo unspecified), the “growth rescue (activation)” value is inactive: -2.58%.

Consider `CC(=O)Nc1ccc(N2CCOCC2)c([N+](=O)[O-])c1`, for which the “growth rescue (activation)” value is inactive: -6.07%.

In the case of `COc1cccc(CN2CC(C(=O)NCCCCc3ccccn3)CCC2=O)c1` (stereo unspecified), the “growth rescue (activation)” value is inactive: 15.9%.

On to `CSc1ccc(S(=O)(=O)N2CCC(C(=O)Nc3ccc(NC(C)=O)cc3)CC2)cc1`, for which the “growth rescue (activation)” value is inactive: 20.6%.

These data come from PubChem BioAssay AID1347073 (National Center for Advancing Translational Sciences (NCATS), 2019).
